Reference: article PMC12820563, “FoxP3 forms a head-to-head dimer in vivo and stabilizes its multimerization on adjacent microsatellites”
Some of the results follow.

biological target: T1, MBP-FoxP1dN (Mus musculus, UniProt P58462 326-579); assay: PD-seq (MBP pull-down with sequencing); 20 mM Tris-HCl pH 7.5, 100 mM NaCl, 1.5 mM MgCl2, 0.4 uM protein, 0.1 uM dsDNA library, 30 min, room temperature, amylose pull-down; high values mean tight binding; conditions: protein: recombinant; tags: His6-MBP; chain copies: 2; dsDNA, one strand shown
T1 sequence: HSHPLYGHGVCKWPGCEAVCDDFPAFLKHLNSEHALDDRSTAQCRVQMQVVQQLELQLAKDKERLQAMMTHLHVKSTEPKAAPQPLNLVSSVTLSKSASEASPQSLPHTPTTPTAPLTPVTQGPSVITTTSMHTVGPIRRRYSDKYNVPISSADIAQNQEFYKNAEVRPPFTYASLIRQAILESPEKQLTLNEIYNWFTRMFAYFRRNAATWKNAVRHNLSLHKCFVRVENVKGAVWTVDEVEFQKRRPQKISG
Procedure, shortened: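 His6-MBP-tagged mouse FoxP3 or FoxP1 fragment lacking the N-terminus, expressed in E. coli, was mixed at 0.4 µM with 0.1 µM Klenow-filled double-stranded degenerate DNA library. Incubation was 30 min at room temperature in Tris pH 7.5 buffer with NaCl and MgCl2. Complexes were caught on amylose resin and washed three times; DNA was released with proteinase K, PCR-barcoded and Illumina-sequenced. Binding is reads-per-million enrichment, pull-down over input, with replicates pooled.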

| Sequence | binding signal |
| --- | --- |
| GATGATTGTTCTCCCAGCTGATGAATTAAAGAAATCGAGTAAACAAATTTTCCTAATCTTTCTGTTCAAGCGCCATCTAC | 1.14 RPM ratio (pull-down/input) |
| GATGATTGTTCTCCCAGCTGATGAATTGCGCCATTCGAGTAAACAAATTTTCCTAATCTTTCTGTTCAAGCGCCATCTAC | 1.14 RPM ratio (pull-down/input) |
| GATGATTGTTCTCCCAGCTGATGAATTCAACTGCTCGAGTAAACAAATTTTCCTAATCTTTCTGTTCAAGCGCCATCTAC | 0.801 RPM ratio (pull-down/input) |
| GATGATTGTTCTCCCAGCTGATGAATTCCGGAGATCGAGTAAACAAATTTTCCTAATCTTTCTGTTCAAGCGCCATCTAC | 0.814 RPM ratio (pull-down/input) |
| GATGATTGTTCTCCCAGCTGATGAATTACCGACCTCGAGTAAACAAATTTTCCTAATCTTTCTGTTCAAGCGCCATCTAC | 0.893 RPM ratio (pull-down/input) |
| GATGATTGTTCTCCCAGCTGATGAATTTTTAAAATCGAGTAAACAAATTTTCCTAATCTTTCTGTTCAAGCGCCATCTAC | 1.13 RPM ratio (pull-down/input) |
| GATGATTGTTCTCCCAGCTGATGAATTTCTGCTGTCGAGTAAACAAATTTTCCTAATCTTTCTGTTCAAGCGCCATCTAC | 1.2 RPM ratio (pull-down/input) |
| GATGATTGTTCTCCCAGCTGATGAATTAAGTTGTTCGAGTAAACAAATTTTCCTAATCTTTCTGTTCAAGCGCCATCTAC | 1.42 RPM ratio (pull-down/input) |
| GATGATTGTTCTCCCAGCTGATGAATTACGAGTCTCGAGTAAACAAATTTTCCTAATCTTTCTGTTCAAGCGCCATCTAC | 0.992 RPM ratio (pull-down/input) |
| GATGATTGTTCTCCCAGCTGATGAATTACGCCGATCGAGTAAACAAATTTTCCTAATCTTTCTGTTCAAGCGCCATCTAC | 1.03 RPM ratio (pull-down/input) |
| GATGATTGTTCTCCCAGCTGATGAATTTACATTGTCGAGTAAACAAATTTTCCTAATCTTTCTGTTCAAGCGCCATCTAC | 1.47 RPM ratio (pull-down/input) |
| GATGATTGTTCTCCCAGCTGATGAATTCCACCGCTCGAGTAAACAAATTTTCCTAATCTTTCTGTTCAAGCGCCATCTAC | 0.73 RPM ratio (pull-down/input) |
| GATGATTGTTCTCCCAGCTGATGAATTAGGAACATCGAGTAAACAAATTTTCCTAATCTTTCTGTTCAAGCGCCATCTAC | 1.04 RPM ratio (pull-down/input) |
| GATGATTGTTCTCCCAGCTGATGAATTATTTGAGTCGAGTAAACAAATTTTCCTAATCTTTCTGTTCAAGCGCCATCTAC | 1.06 RPM ratio (pull-down/input) |
| GATGATTGTTCTCCCAGCTGATGAATTCTATATCTCGAGTAAACAAATTTTCCTAATCTTTCTGTTCAAGCGCCATCTAC | 0.869 RPM ratio (pull-down/input) |
| GATGATTGTTCTCCCAGCTGATGAATTCCTGGACTCGAGTAAACAAATTTTCCTAATCTTTCTGTTCAAGCGCCATCTAC | 0.754 RPM ratio (pull-down/input) |
| GATGATTGTTCTCCCAGCTGATGAATTACTGTCTTCGAGTAAACAAATTTTCCTAATCTTTCTGTTCAAGCGCCATCTAC | 1.01 RPM ratio (pull-down/input) |
| GATGATTGTTCTCCCAGCTGATGAATTAAGACTGTCGAGTAAACAAATTTTCCTAATCTTTCTGTTCAAGCGCCATCTAC | 0.825 RPM ratio (pull-down/input) |
| GATGATTGTTCTCCCAGCTGATGAATTAGAGTGATCGAGTAAACAAATTTTCCTAATCTTTCTGTTCAAGCGCCATCTAC | 0.893 RPM ratio (pull-down/input) |
| GATGATTGTTCTCCCAGCTGATGAATTTCCCAGGTCGAGTAAACAAATTTTCCTAATCTTTCTGTTCAAGCGCCATCTAC | 0.75 RPM ratio (pull-down/input) |

| Sequence | binding signal |
| --- | --- |
| GATGATTGTTCTCCCAGCTGATGAATTAAAACAGTCGAGTAAACAAATTTTCCTAATCTTTCTGTTCAAGCGCCATCTAC | 1.07 RPM ratio (pull-down/input) |
| GATGATTGTTCTCCCAGCTGATGAATTATGCATCTCGAGTAAACAAATTTTCCTAATCTTTCTGTTCAAGCGCCATCTAC | 1.59 RPM ratio (pull-down/input) |
| GATGATTGTTCTCCCAGCTGATGAATTAAGGCAATCGAGTAAACAAATTTTCCTAATCTTTCTGTTCAAGCGCCATCTAC | 1.1 RPM ratio (pull-down/input) |
| GATGATTGTTCTCCCAGCTGATGAATTAATCTAATCGAGTAAACAAATTTTCCTAATCTTTCTGTTCAAGCGCCATCTAC | 1.1 RPM ratio (pull-down/input) |
| GATGATTGTTCTCCCAGCTGATGAATTAACTATCTCGAGTAAACAAATTTTCCTAATCTTTCTGTTCAAGCGCCATCTAC | 0.809 RPM ratio (pull-down/input) |
| GATGATTGTTCTCCCAGCTGATGAATTAAATCTCTCGAGTAAACAAATTTTCCTAATCTTTCTGTTCAAGCGCCATCTAC | 0.904 RPM ratio (pull-down/input) |
| GATGATTGTTCTCCCAGCTGATGAATTGGCCCGGTCGAGTAAACAAATTTTCCTAATCTTTCTGTTCAAGCGCCATCTAC | 0.753 RPM ratio (pull-down/input) |
| GATGATTGTTCTCCCAGCTGATGAATTCGTAGCGTCGAGTAAACAAATTTTCCTAATCTTTCTGTTCAAGCGCCATCTAC | 0.879 RPM ratio (pull-down/input) |
| GATGATTGTTCTCCCAGCTGATGAATTTATTGTCTCGAGTAAACAAATTTTCCTAATCTTTCTGTTCAAGCGCCATCTAC | 1.78 RPM ratio (pull-down/input) |
| GATGATTGTTCTCCCAGCTGATGAATTAGAGCGCTCGAGTAAACAAATTTTCCTAATCTTTCTGTTCAAGCGCCATCTAC | 0.836 RPM ratio (pull-down/input) |
| GATGATTGTTCTCCCAGCTGATGAATTTGGCATATCGAGTAAACAAATTTTCCTAATCTTTCTGTTCAAGCGCCATCTAC | 1.02 RPM ratio (pull-down/input) |
| GATGATTGTTCTCCCAGCTGATGAATTTGGCTTATCGAGTAAACAAATTTTCCTAATCTTTCTGTTCAAGCGCCATCTAC | 1.03 RPM ratio (pull-down/input) |
| GATGATTGTTCTCCCAGCTGATGAATTTAGTATCTCGAGTAAACAAATTTTCCTAATCTTTCTGTTCAAGCGCCATCTAC | 1.01 RPM ratio (pull-down/input) |
| GATGATTGTTCTCCCAGCTGATGAATTGGGTGTGTCGAGTAAACAAATTTTCCTAATCTTTCTGTTCAAGCGCCATCTAC | 0.964 RPM ratio (pull-down/input) |
| GATGATTGTTCTCCCAGCTGATGAATTTGTACACTCGAGTAAACAAATTTTCCTAATCTTTCTGTTCAAGCGCCATCTAC | 1.39 RPM ratio (pull-down/input) |
| GATGATTGTTCTCCCAGCTGATGAATTGGATCTCTCGAGTAAACAAATTTTCCTAATCTTTCTGTTCAAGCGCCATCTAC | 0.78 RPM ratio (pull-down/input) |
| GATGATTGTTCTCCCAGCTGATGAATTTCGTGAATCGAGTAAACAAATTTTCCTAATCTTTCTGTTCAAGCGCCATCTAC | 0.976 RPM ratio (pull-down/input) |
| GATGATTGTTCTCCCAGCTGATGAATTCGCAGTATCGAGTAAACAAATTTTCCTAATCTTTCTGTTCAAGCGCCATCTAC | 0.928 RPM ratio (pull-down/input) |
| GATGATTGTTCTCCCAGCTGATGAATTGACTTAATCGAGTAAACAAATTTTCCTAATCTTTCTGTTCAAGCGCCATCTAC | 1.22 RPM ratio (pull-down/input) |
| GATGATTGTTCTCCCAGCTGATGAATTGCGGACTTCGAGTAAACAAATTTTCCTAATCTTTCTGTTCAAGCGCCATCTAC | 1.03 RPM ratio (pull-down/input) |
